From paper PMC3734299, “Farnesyl Phosphatase, a Corpora allata Enzyme Involved in Juvenile Hormone Biosynthesis in Aedes aegypti” (PLoS ONE, 2013) come the findings set out here.

This assay deals with T1, AaFPPase-3 (Aedes aegypti, UniProt A0A1S4FMV7).
T1 construct: gene 110678816
T1 sequence (A0A1S4FMV7 1-317): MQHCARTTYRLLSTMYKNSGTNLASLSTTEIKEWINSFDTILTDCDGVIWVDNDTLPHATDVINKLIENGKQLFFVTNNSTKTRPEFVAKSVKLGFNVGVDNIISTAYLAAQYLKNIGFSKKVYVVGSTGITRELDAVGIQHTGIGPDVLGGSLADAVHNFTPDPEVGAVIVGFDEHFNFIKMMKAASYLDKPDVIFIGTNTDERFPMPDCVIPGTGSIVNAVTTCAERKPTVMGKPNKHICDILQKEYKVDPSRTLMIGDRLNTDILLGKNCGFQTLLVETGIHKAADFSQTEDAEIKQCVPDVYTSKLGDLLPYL
The experiment in a line: p-NPP phosphatase assay. The conditions noted are these: Mg2+ cofactor; optimum pH 6.0.

As to `O=[N+]([O-])c1ccc(OP(=O)(O)O)cc1` [p-NPP], the p-NPP phosphatase assay entry was “All AaFPPases hydrolyzed p-NPP, but only AaFPPase-1 and -2 converted FPP into farnesol”.
